This passage reports self-cleavage results from the RNAGym collection of RNA variant scans (doi:10.7554/elife.90254).

B1: LINE1-mini (parent)
chain: GGCAGAGCUCAACACAGCGUGGCAAAGUGGCUGUGGCUAGACUGCC

The source gives no read counts; variants with many changes may rest on few reads.

This data set covers variants of B1. In words: self-cleavage, relative activity (ratio to wild type); higher = more cleavage; in vitro, sequencing; the parent is a self-cleaving ribozyme.
As to GGCAGAGCUCAACACAGCGUGGCAGAGUGCCGGUGGCUAUACUGCC, the self-cleavage was determined as 0.
The value for GGCAGAGCUCAACACAGCGUGGCACAGCGGCUGUGCCUAGACUGCC was 0.01; that for GGCAGAGCUCAACACAGCGUGGCUAAGAAGCUGCGGCUAGACUGCC was 0.02.
With GGCAGAGCUCAACACAGCGUGGCAACGAGGGUGUGGCUAGACUGCC, the self-cleavage amounted to 0.06.
As for GGCAGAGCUCAACACAGCGUGGCAAGGUGGCUGUGGCUAGCCUGAC, the figure is 0.07; as for GGCAGAGCUCAACACAGCGUGGCACGGUCGCGGUGGCUAGCCUACC, 0.04.
The value for GGCAGAGCUCAACACAGCGUGGCAACUUGGCUGUGGCUAGCCUGCC was 0.02; that for GGCAGAGCUCAACACAGCGUGGCACAGUGACUGUUGCUAGACUUCC was 0.01; that for GGCAGAGCUCAACACAGCGUGGCAGUGUGGCUUUGGCUAGACAGCC was 0.02.
Consider GGCAGAGCUCAACACAGCGUGGCAAGGUGGUUGUGACUAGUCUGCC, for which the self-cleavage stood at 0.04.
The value for GGCAGAGCUCAACACAGCGUGGCAACGUGCAUGUGGCUACACUGCC was 0.01.
As to GGCAGAGCUCAACACAGCGUGGCAUAGUGGCUGUGGUUAGACUUCC, the self-cleavage is 0.06.
Regarding GGCAGAGCUCAACACAGCGUGGCAACGUAGCUGUGGCUAGACUGAC, the self-cleavage was 1.21.
The value for GGCAGAGCUCAACACAGCGUGGCAGAGUGGCCGUGGCUAGACUGCG was 0.01.
For GGCAGAGCUCAACACAGCGUGGCAGAGUGGCUCUGCCUAGACUGCC, the self-cleavage is 0.02.
In the case of GGCAGAGCUCAACACAGCGUGGCAACGUGGCUGUGGCUCCACUGCC, the self-cleavage came to 0.02.
As for GGCAGAGCUCAACACAGCGUGGCAACGUCGCUGUGGUUAGACUGCC, the figure is 0.01; as for GGCAGAGCUCAACACAGCGUGGCUAAGUAGCUGUGGCUACACUGCC, 0.04; as for GGCAGAGCUCAACACAGCGUGGCUAACUGGCUGUGCCCAGACUGCC, 0.15.
Take GGCAGAGCUCAACACAGCGUGGCUAAGUGGUUGUGGUUUGACUGUC: the self-cleavage was 0.02.
The value for GGCAGAGCUCAACACAGCGUGGCACAGUGGCUCUGUCUAAACUGCC was 0.04; that for GGCAGAGCUCAACACAGCGUGGCUAAGUGGCUGGGGCUAGUCUGCC was 0.1.
The value for GGCAGAGCUCAACACAGCGUGGCACAGUUGCUGUAGCUAGAGUGCC was 0.02; that for GGCAGAGCUCAACACAGCGUGGCACAAUGACUGUGGCUAGACUGCC was 0.69; that for GGCAGAGCUCAACACAGCGUGGCAAGGUGGCUGUGGCUUCACUGCC was 0.19.
Take GGCAGAGCUCAACACAGCGUGGCAUCGCGGCUGUGGCUAGACUCCC: the self-cleavage came out at 0.22.
The value for GGCAGAGCUCAACACAGCGUGGCACAGUGGCUGUGGCUAGAUUCCC was 0.05; that for GGCAGAGCUCAACACAGCGUGGCUAAGUGGCUGAGGUCAGACUGCA was 0.03; that for GGCAGAGCUCAACACAGCGUGGCACAGUGGGUGUGGAUAGACUGCC was 0.04.
GGCAGAGCUCAACACAGCGUGGCAUAGUGGAUUUGGCUAGACUGCC: the self-cleavage was 0.16.
Turning to GGCAGAGCUCAACACAGCGUGGCAUAGGUGCUGUGGCUAGACUGCC, the self-cleavage turned out to be 0.42.
Take GGCAGAGCUCAACACAGCGUGGCACAAUGGCUGCGGCAAGACUGCC: the self-cleavage was found to be 0.04.
The value for GGCAGAGCUCAACACAGCGUGGCAGAGUGGCUGUAGCUAGACUGGC was 0.06; that for GGCAGAGCUCAACACAGCGUGGCAGAGUGGCUGUAGCUAGACUGUC was 0.12.
As for GGCAGAGCUCAACACAGCGUGGCAUAGUGGCUGUGUAUAGACUGCC, the figure is 0.04.
As for GGCAGAGCUCAACACAGCGUGGCACAGUUGCUGUGCCUAGACUGCC, the figure is 0.05; as for GGCAGAGCUCAACACAGCGUGGCAGUGUGGCUGUGACUAGACUGCC, 0.15.
GGCAGAGCUCAACACAGCGUGGCAGAGUGGCUGUGGCUAGCGUGCC: the self-cleavage came to 0.01.
Consider GGCAGAGCUCAACACAGCGUGGCUAAGUGGCUUUGGUUAGACUGCC, for which the self-cleavage was 0.07.
As for GGCAGAGCUCAACACAGCGUGGCAUAGUGGCUCUCGCUUGAGUGCC, the figure is 0.04; as for GGCAGAGCUCAACACAGCGUGGCACAGUGGCUGUGACUAGACUGCU, 0.04; as for GGCAGAGCUCAACACAGCGUGGCAACGUGGCGGAGGGGAGACUGCC, 0.05.
The value for GGCAGAGCUCAACACAGCGUGGCAACGUGGCUGUGGAUAGACGGCC was 0.04.
Regarding GGCAGAGCUCAACACAGCGUGGCAACGUGGCUGUUGCUAGCAUGCC, the self-cleavage was 0.01.
The value for GGCAGAGCUCAACACAGCGUGGCAUAGUGGCUGUGGCUAGCCUGAC was 0.07; that for GGCAGAGCUCAACACAGCGUGGCAACGUAGCUUUGGCUAGACUGCC was 0.05.
Consider GGCAGAGCUCAACACAGCGUGGCAGAGUGGCUGGGGCUAGGCUACC, for which the self-cleavage came out at 0.02.
Turning to GGCAGAGCUCAACACAGCGUGGCAUACUGGCUGUGGCUAGAUAGCC, the self-cleavage turned out to be 0.07.
With GGCAGAGCUCAACACAGCGUGGCAUAGUGGCUAUGGCUAGAUUGCC, the self-cleavage was 0.28.
Regarding GGCAGAGCUCAACACAGCGUGGCACAGUGGCUGGGGCUAUACUGCC, the self-cleavage was 0.04.
As for GGCAGAGCUCAACACAGCGUGGCAUAGUAGCUGGGGCUAAACUGCC, the figure is 0.06; as for GGCAGAGCUCAACACAGCGUGGCAACGUGGCUGUGACAAGACUGCC, 0.08; as for GGCAGAGCUCAACACAGCGUGGCACAGUGGCUGUGGCUAGACUGUG, 0.05.
Turning to GGCAGAGCUCAACACAGCGUGGCAUAGUGGCUGUGUGUAGACUGUC, the self-cleavage amounted to 0.04.
As for GGCAGAGCUCAACACAGCGUGGCAAGGUGGCUGUGGCUAGUAUGCC, the figure is 0.02; as for GGCAGAGCUCAACACAGCGUGGCAAGGUGGCUGUGGCUAGAUUGGC, 0.01.
